52 molecules from PMC12040169 (PLOS Biology, 2025) can be followed below.

The structures appear in SMILES notation. The list shows a part of the results.

For the assay, the system named is T1, C. trachomatis L2/434/Bu expressing GFP (CTL2-GFP).
T1 construct: L2/434/Bu GFP intracellular growth in HeLa cells
More on the design: species or system HeLa; C. trachomatis total inclusion area by high-content imaging, normalised to DMSO. The settings on record: total inclusion area; 28.5 h, 10 µM; inhibitor. A digest of the protocol: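 Host cell viability was gauged from Hoechst-stained nuclei counts, while chlamydial growth was taken from total inclusion area and inclusion number per well. Cells were fixed and imaged by high-content microscopy once bulk GFP and resorufin fluorescence had been measured.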
`Cc1nn(CC(=O)NC(C)C)c(=O)c2cc3sccc3n12` [CBK284048]: the “% of control remaining” value is 103.662. `CCc1ccc(-n2cc(-c3ccccn3)nn2)cc1` [CBK113137]: the “% of control remaining” value was found to be 114.539. The figure for `O=C(Cn1cccc2cc(C3CCNCC3)nc1-2)N1CCCCCC1` [CBK284679] is 64.143.

Take `O=C(CSCc1ccc(Cl)cc1Cl)Nc1cccc(O)c1` [CBK131702]: the “% of control remaining” value was 87.6929. As for `CC(=O)Nc1nc(C(=O)N2CCOC(c3ccc(F)cc3)C2)cs1` (stereo not shown) [CBK244238], the “% of control remaining” value was found to be 23.0327. To `Cc1nnc(CNC(=O)c2cc(-c3ccc(Cl)cc3)nc3ccccc23)o1` [CBK297717] belongs 73.6044; to `CC1CCCCN1CC(C)(C)NC(=O)c1cc(C2CC2)on1` (stereo not shown) [CBK281676], 100.451. The figure for `COc1ccc(-c2c[nH]c([C@@H]3COCCN3Cc3csnn3)n2)cc1` [CBK289297] is 122.809; for `Cc1cn(CC(=O)N2CCCC3(CCN(C(=O)c4cc(F)c(F)cc4F)C3)C2)c(=O)[nH]c1=O` (stereo not shown) [CBK131561] it is 72.6314. With `O=C(Nc1cc(N2CCCS2(=O)=O)ccc1Cl)c1cc[nH]n1` [CBK306249], the “% of control remaining” value was 45.5094.

In the case of `COc1cccc(C(=O)Nc2ccc(NC(=O)C3CC=CCC3C(=O)O)cc2)c1` (stereo not shown) [CBK266316], the “% of control remaining” value came out at 106.659. Regarding `Cc1nccn1CC1(O)CCN(Cc2ccc(F)c(F)c2)CC1` [CBK284955], the “% of control remaining” value was 83.8959.

`CCCn1nc(C)c(-c2cncn2CCn2nc(C)c(C)c2C)c1C` [CBK281444]: the “% of control remaining” value was 94.3636. To `CCc1nsc(N2CCC(Oc3cccnc3N(C)C)C2)n1` (stereo not shown) [CBK304498] belongs 67.9955.

Regarding `COc1ccc(C(=O)N2CCC3(CCCN(C(=O)CCSC)C3)C2)cc1OC` (stereo not shown) [CBK131661], the “% of control remaining” value stood at 94.6931. Turning to `CC(C)NC(=O)N[C@H]1CCN2C(=O)c3ccc(Cl)cc3NC(=O)[C@H]12` [CBK289343], the “% of control remaining” value is 98.4577. To `Cc1noc(C)c1C[S+]([O-])c1ccc(Br)cc1` (stereo not shown) [CBK034195] belongs 129.891; to `CC(NC(=O)c1ccc(-n2ccnc2)c(-n2cccc2)c1)c1ccco1` (stereo not shown) [CBK284808], 112.041. Turning to `COCc1cccc(-c2nccnc2Oc2cccc(OC)c2)c1` [CBK106958], the “% of control remaining” value is 72.9666. The figure for `CC(C)(C)OC(=O)N1CCC(C2OCc3cc(-c4ccc(S(C)(=O)=O)cn4)ccc3O2)CC1` (stereo not shown) [CBK173326] is 75.5705; for `CN1C(=O)COc2ccccc2C/C=C/C[C@H]2NCCC[C@H]21` [CBK292156] it is 116.116; for `CC(=O)NC(NC(=S)Nc1sc2c(c1C(N)=O)CCCC2)C(Cl)(Cl)Cl` (stereo not shown) [CBK261054] it is 92.6105. To `CC(C)(C)C(=O)CSc1nnc(-c2ccccc2)n1Cc1ccccc1` [CBK264960] belongs 99.579; to `CCC(NC(=O)c1ccc(C(C)(C)C)[nH]c1=O)c1ccc(OC)cc1` (stereo not shown) [CBK282940], 106.156.

As for `O=C(Cn1nnc2ccccc21)N/N=C\c1cccc(Cl)c1Cl` [CBK262931], the “% of control remaining” value is on record as 45.969. Turning to `CCN(CC)C(=O)CN1CCC(c2ccccc2F)CC1` [CBK283549], the “% of control remaining” value is given as 98.3549. `CC1(C)SC(NCC2CCCCC2)=NC1=O` [CBK067808]: the “% of control remaining” value is recorded as 128.918. As to `Cc1noc(C)c1S(=O)(=O)Nc1ccc2[nH]ncc2c1` [CBK062518], the “% of control remaining” value turned out to be 95.2984. To `COc1cc(NC(=O)NCCc2cccs2)cc(OC)c1OC` [CBK043347] belongs 67.2284; to `CC1CCCN(CC(=O)NCc2ccc(OCC(N)=O)cc2)CC1` (stereo not shown) [CBK305755], 85.2297; to `CC(C)OCC(O)Cn1c(N/N=C/c2ccccc2O)nc2c1c(=O)[nH]c(=O)n2C` (stereo not shown) [CBK139853], 92.044. The figure for `O=C(O)c1ccccc1-c1ccccc1C(=O)Nc1ccc(O)cc1` [CBK286602] is 103.867; for `Cc1cc(C2CCCCCN2C(=O)c2ccc(F)cc2)on1` (stereo not shown) [CBK285447] it is 87.9387. Regarding `Cc1ccc(CN(Cc2cnc(C)n2C)CC2CCCO2)o1` (stereo not shown) [CBK283291], the “% of control remaining” value is on record as 118.852. For `COc1ccccc1-c1ccc(C(=O)N(C)CCN(C)C)c(NCC2CC2)n1` [CBK106269], the “% of control remaining” value came out at 84.7759.

In the case of `O=C(NC(c1ccc(Cl)cc1)c1ccsc1)C1CCN(CCc2ccc(F)cc2)CC1` (stereo not shown) [CBK147976], the “% of control remaining” value is on record as 89.5188. As for `CCC1C(=O)N=C(SCC(=O)Nc2ncccn2)NC1=O` (stereo not shown) [CBK263920], the “% of control remaining” value worked out at 116.822. To `CC[C@H]1CN(S(=O)(=O)c2c(C)noc2C)CC[C@H]1CC(=O)Nc1nccs1` [CBK288779] belongs 109.641. To `CC(C)[C@H](CO)Nc1nc(-c2ccc3c(c2)OCO3)cn2ccnc12` [CBK038071] belongs 123.494.

Consider `O=C(CN1CCN(Cc2ccccc2)CC1)Nc1ccc(C(F)(F)F)cc1Cl` [CBK074781], for which the “% of control remaining” value is on record as 94.9512. To `CCOCC1CCN(C(=O)c2ncsc2Nc2ccccc2)C1` (stereo not shown) [CBK304204] belongs 60.2896. The figure for `CCCC(=O)N1CCC(c2nc3ccccc3cc2NC(C)=O)CC1` [CBK285258] is 108.836; for `COc1ccc(Nc2cc(-c3ccsc3)ncn2)cc1OC` [CBK090820] it is 144.535. The figure for `COc1ccc(C(C)C)cc1-c1cc(Nc2cc(OC)c(OC)c(OC)c2)n2nccc2n1` [CBK037746] is 101.504. On to `O=C(NCCN1CCC(O)(c2ccc(F)cc2)CC1)C1CC1` [CBK283164], for which the “% of control remaining” value is listed as 89.7701.

Regarding `Cc1cc(S(=O)(=O)N2CCCC2)ccc1OCC(=O)O` [CBK268289], the “% of control remaining” value is reported as 123.661. For `O=C(CCC(=O)c1ccc(F)cc1)Nc1cccnc1` [CBK266901], the “% of control remaining” value is reported as 114.819. Regarding `CC1CC(=O)Nc2ccccc2N1C(=O)Cn1c(=O)cnc2ccccc21` (stereo not shown) [CBK297116], the “% of control remaining” value worked out at 64.6507. For the molecule `CC1(C)[C@H](Cc2cc(CO)on2)C[C@@H]1NC(=O)C1CCCCC1` [CBK289235], the “% of control remaining” value was 128.831.

`O=C(CN1CCOCC1)Nc1sc2c(c1C(=O)Nc1ccc(Br)cc1)CCC2` [CBK265073]: the “% of control remaining” value was found to be 107.657. The figure for `O=C(Nc1cccc(-c2nnn[nH]2)c1)c1ccc(Cl)c(Cl)c1` [CBK144713] is 107.631; for `CC1(c2[nH]nc(N)c2Cc2c(Cl)cccc2Cl)CC1` [CBK115483T] it is 68.1208.
